# From PubChem BioAssay AID651820 (National Center for Advancing Translational Sciences (NCATS), 2012)
# Among all 340,000 compounds or so, about 12,000 (3.5%) were called active. The inconclusive results got no clear call from the source; some entries with a clear call stand among them for comparison. Calls follow the shape of the dose curve; as a rule, active = well fitted inhibition curve with a large enough effect; inconclusive = small, poorly fitted or top-dose-only effect, or another doubt; inactive = no such curve, though single readings can be large or run the other way. No potency is given beside an inconclusive call; the fits are too rough.
# Assay: qHTS Assay for Inhibitors of Hepatitis C Virus (HCV)
# Details: Huh7.5.1 HCVcc-Cre (HCVcc is cell-culture hepatitis C virus) infection, luciferase reporter, 44 h; activity change, negative = inhibition: at 41.8 µM (top of the series)
# In short: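 Infectious HCVcc-Cre (~0.5 moi) was added to cells just after compound, with cells seeded 4 h earlier at 1,000 per well. Luciferase activity after 44 h culture reported infection; substrate was incubated 15 min at room temperature before reading.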
# % is scaled to controls: 0 for no effect and ±100 for the full control effect; potency is read from the fitted curve at half-maximal effect; tags tell the direction and shape of the fitted curve.
Compound,"activity change, negative = inhibition",Potency
CCN(CC)C(=O)c1sc(NC(=O)C(C)C)c(C#N)c1C,inactive: 22.5%,
O=C(N/N=C/c1ccccn1)c1ccc(NC(=O)c2cccc([N+](=O)[O-])c2)cc1,,"inconclusive [inhibitor, partial curve, poor fit]"
CN1CCN(Cc2cn[nH]c2-c2ccc(F)cc2F)[C@@H](c2ccccc2)C1,inactive: 4.49%,
Cc1ccccc1OC(=O)c1cccnc1,inactive: 11.9%,
COc1ccccc1CNC(=O)CS(=O)Cc1nc(-c2ccccc2C)oc1C (stereo not given),inactive: 0.969%,
Cc1ccc(NC(=O)C(OC(=O)c2ccc(C=O)cc2)c2ccccc2)cc1Cl (stereo not given),inactive: -7.26%,
CCOC(=O)/C(C#N)=N\Nc1cc(Cl)ccc1OC,,"inconclusive [inhibitor, full curve]"
Cc1ccc(N2C(=O)[C@@H]3[C@H](C2=O)C2c4ccccc4C=CN2[C@@H]3C(=O)c2ccco2)c(C)c1 (stereo not given in full),inactive: -4.45%,
Cc1ccccc1Oc1nc2c(C)cccn2c(=O)c1/C=C(\C#N)C(=O)Nc1c(C)n(C)n(-c2ccccc2)c1=O,inactive: 15.8%,
CCn1c(SCC(=O)Nc2ccc3c(c2)OCO3)nc2c(c1=O)SC(C)C2 (stereo not given),inactive: -12.3%,
CCc1cccc(NC(=S)N(CCOC)C(C)c2ccco2)c1 (stereo not given),,"inconclusive [inhibitor, partial curve]"
N#C/C(=C/c1ccc(N2CCCCCC2)o1)c1cccc(F)c1,,"inconclusive [inhibitor, full curve]"
COc1ccc(-c2cc(-c3ccc(Cl)cc3)n[nH]2)c(O)c1,,"inconclusive [inhibitor, single point]"
COc1ccc(CCN(C)CC(O)COc2c(C)ccc(C)c2C)cc1OC (stereo not given),,"inconclusive [inhibitor, partial curve]"
COc1ccc(C[C@H]2CN3C(=NC[C@@H]3Cc3ccccc3)N2CCNC(=O)c2ccc(C)c(Br)c2)cc1,,"inconclusive [inhibitor, single point]"
N#CCC(=O)N/N=C/c1ccc(N2N=C(c3ccccc3)CC2c2ccccc2)cc1 (stereo not given),,"inconclusive [inhibitor, single point]"
Cc1ccc2sc(N(CCCN(C)C)C(=O)c3ccc(S(=O)(=O)N4CCOCC4)cc3)nc2c1C,,"inconclusive [inhibitor, single point]"
O=C(COc1ccc(Cl)cc1)N1CCN(Cc2ccccc2)CC1,,"inconclusive [inhibitor, single point]"
NC(=O)c1c(NC(=O)CN2CCN(S(=O)(=O)c3ccccc3)CC2)sc2c1CCC2,,active: 10 µM
Cc1ccc(NC(=O)Cc2ccccc2F)cc1S(=O)(=O)N1CCCCCC1,,active: 11.2 µM
Nc1c(C(=O)NCc2ccco2)c2nc3ccccc3nc2n1CCc1ccccc1,,"inconclusive [inhibitor, single point]"
Cc1c(Br)c(=O)oc2c(Br)c(O)c(O)cc12,inactive: -22.9%,
O=C(O)c1cccc(-n2c(O)c(C=C3N=c4ccccc4=N3)sc2=S)c1,inactive: 21.8%,
COC(=O)C1=C(c2ccccc2OCc2ccccc2)C[C@@H]2CC[C@H]1N2C(=O)NCc1ccc(F)cc1,,active: 7.08 µM

Compound,"activity change, negative = inhibition",Potency
CCOC(=O)c1c(NC(=O)CCCN2CCOCC2)sc2c1CC(C)(C)OC2,,"inconclusive [inhibitor, partial curve]"
O=C(c1cccc(S(=O)(=O)N2CCCC2)c1)N1CCN(c2ccccc2F)CC1,,"inconclusive [inhibitor, full curve, poor fit]"
CC1CN(c2ccc([N+](=O)[O-])nc2)CC(C)O1 (stereo not given),inactive: -0.633%,
COc1ccc(NC(=O)c2c(Nc3ccccc3)sc(C(=O)c3ccc(F)cc3)c2N)cc1,,active: 6.31 µM
COc1ccc(NC(=S)N2CCC(c3ccccc3)C2)cc1 (stereo not given),inactive: 3.6%,
COc1cc2cc(C(=O)N3CC(COS(C)(=O)=O)c4ccc(O)cc43)[nH]c2c(OC)c1OC (stereo not given),,"inconclusive [inhibitor, full curve]"
CSc1ncccc1C(=O)Nc1cccc(S(=O)(=O)N2CCCCC2)c1,,"inconclusive [inhibitor, partial curve]"
CC(C)C(OC(=O)c1cc2sccc2n1C)C(=O)NCC1CCCO1 (stereo not given),,"inconclusive [inhibitor, single point]"
Cc1[nH]c2ccc(-c3nnc(SCC(=O)c4ccccc4F)o3)cc2c1C,,"inconclusive [inhibitor, partial curve]"
COc1ccc(OCC(=O)Nc2ccc(C)c(S(=O)(=O)N(C)C)c2)cc1,,"inconclusive [inhibitor, single point]"
CCOC(=O)Cc1nnc(Nc2ccc(C)cc2)c2ccccc12,,"inconclusive [inhibitor, single point]"
CCOC(=O)CSc1nc(N(C)C)nc(N(C)C#N)n1,inactive: 1.92%,
COc1ccc(/C=C/CN2CCCC(CCC(=O)NCc3ccc(F)c(F)c3)C2)cc1 (stereo not given),,"inconclusive [inhibitor, partial curve]"
CCOC(=O)c1c(C)[nH]c(C)c1C(=O)CSc1nnc(-c2ccncc2)n1Cc1ccccc1,inactive: -26.2%,
COc1ccc(-c2nnc(NC(=O)c3ccc(S(=O)(=O)N4CCCc5ccccc54)cc3)o2)cc1,,active: 10 µM
O=C(CSc1cccc2cccnc12)N/N=C/c1ccc(F)cc1,inactive: -9.63%,
C[C@H]1[C@H](C)CC[C@]2(C(=O)O)CC[C@]3(C)C(=CC[C@@H]4[C@@]5(C)CC[C@H](O)C(C)(C)[C@@H]5CC[C@]43C)[C@H]12,,active: 0.316 µM
CCNC(=O)NC(=O)C(C)Oc1ccc(Br)cc1Br (stereo not given),,"inconclusive [inhibitor, single point]"
O=C(NCCN1CCOCC1)c1ccc2c(c1)N(Cc1cccc(F)c1)C(=O)c1ccccc1S2,inactive: -0.0614%,
Cc1ccc(-n2c(O)c(/C=N/NC(=O)c3ccncc3)c(=O)[nH]c2=O)cc1,inactive: 4.74%,
CSc1ncccc1C(=O)OCc1ccc(Br)cc1,,"inconclusive [inhibitor, partial curve]"
Cc1noc(C)c1COC(=O)c1cccnc1SCC(=O)Nc1ccc2c(c1)OCO2,,"inconclusive [inhibitor, partial curve]"
CCc1c(C)sc(NC(=O)CCc2ccc(OC)cc2)c1C(N)=O,,"inconclusive [inhibitor, partial curve]"
O=C(NN=Cc1ccc(N2CCOCC2)s1)c1ccc([N+](=O)[O-])cc1,,active: 22.4 µM

Compound,"activity change, negative = inhibition",Potency
CCCOc1ccc(-c2cn3ccccc3n2)cc1[N+](=O)[O-],,"inconclusive [inhibitor, partial curve]"
COc1ccc(CNC(=O)COC(=O)c2ccccc2OCC(=O)Nc2ccc(SC(F)F)cc2)cc1,,"inconclusive [inhibitor, single point]"
Cc1cc(C(=O)CSc2nc3ccccc3c(=O)n2C)c(C)n1Cc1ccc2c(c1)OCO2,,active: 1.58 µM
CC1Sc2ccc(S(=O)(=O)CCC(=O)NCc3ccccc3)cc2NC1=O (stereo not given),inactive: -1.31%,
Cc1ccc(-n2nnc(-c3nccs3)n2)cc1,inactive: -5.61%,
COCCN1C(=NCCCOC(C)C)N[C@@H](c2ccccc2)C(C(=O)OC)=C1C,inactive: 22.6%,
COc1cccc(NC(=O)C(=O)N/N=C(\C)CC(=O)Nc2ccc(NC(C)=O)cc2)c1,,"inconclusive [inhibitor, single point]"
COc1ccc(NC(=O)c2cccnc2N2CCCC2)cc1,,"inconclusive [inhibitor, single point]"
NS(=O)(=O)c1ccc(N2N=C(c3ccc(Br)cc3)CC2c2ccc(F)cc2)cc1 (stereo not given),,"inconclusive [inhibitor, single point]"
Cc1cc(C)n(-c2nc(NCC3CCCO3)c3c4c(sc3n2)COC(C)(C)C4)n1 (stereo not given),,"inconclusive [inhibitor, partial curve]"
COc1ncccc1C(=O)N1CCCC(C(=O)c2cccc(OC(C)C)c2)C1 (stereo not given),,"inconclusive [inhibitor, single point]"
COc1cc2c(cc1NC(=O)c1cccnc1)oc1ccccc12,,active: 3.16 µM
Cc1sc2ncnc(N3CCCCC3)c2c1C,,"inconclusive [inhibitor, partial curve]"
CC/C(=N/Nc1cccc(Cl)c1)c1cnnc(SC)n1,,"inconclusive [inhibitor, single point]"
Cc1ccc([N+](=O)[O-])cc1N(CC(=O)Nc1ccc(S(=O)(=O)Nc2cccc(C(F)(F)F)c2)cc1)S(C)(=O)=O,,"inconclusive [inhibitor, single point]"
CN1CCN(Cc2nc3ccccc3c(=O)n2Cc2nc(-c3cccc([N+](=O)[O-])c3)cs2)CC1,,active: 2.51 µM
CN(Cc1cn(-c2ccccc2)nc1-c1ccc2c(c1)OCO2)Cc1nccn1C,,"inconclusive [inhibitor, single point]"
Cc1nc2ccccc2n1/N=C/c1ccc([N+](=O)[O-])s1,,active: 4.47 µM
COc1ccc(NC(=O)NNS(=O)(=O)c2ccc(OC)c(OC)c2)c(OC)c1,inactive: 19.4%,
O=C(Nc1ccccc1-c1nnn(CC(=O)N2CCCc3ccccc32)n1)c1cccc(Cl)c1,,"inconclusive [inhibitor, single point]"
CCOC(=O)Nc1ccc(C(=O)Oc2ccccc2)c(O)c1,,"inconclusive [inhibitor, partial curve]"
CCCCNC(=S)N=Nc1c(O)n(Cc2ccccc2)c2ccccc12,,"inconclusive [inhibitor, partial curve]"
